# According to the supplement of paper PMC3334620:
# Over roughly 33,000 sequences, “E-score (-0.5 to 0.5)” has its median near -0.016; the highest 2% begin near 0.31. This is one part of the list.
# Target: Cst6 (UniProt P40535)
# Assay: PBM E-score (8-mer binding enrichment) (E-score (-0.5 to 0.5)); higher = stronger / more preferred TF binding; most listed sequences are background and not binding sites
# Details: protein concentration: 200 nM; construct: GST-DNA-binding domain
# In short: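 PURExpress in vitro transcription/translation supplied GST-tagged yeast transcription factors, either full-length or DNA-binding domain. Applied at about 100-200 nM to universal all-10-mer Agilent arrays double-stranded by primer extension, the bound protein was detected with fluorescent anti-GST. E-scores, modified Wilcoxon-Mann-Whitney statistics, were given by the Universal PBM Analysis Suite to ungapped eight-base words pooled with their reverse complements after masliner normalisation.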
row,Sequence,PBM E-score
1,CTAGAAGA,-0.00683
2,AAGCTCCA,-0.0294
3,ACCGGCCC,-0.28
4,ACAGTGTC,-0.175
5,TGTCAAAA,0.163
6,AATTGTAT,0.0983
7,ATTTTGGA,0.235
8,CACTTCCC,-0.00973
9,AAAAAAGG,0.00277
10,CTGAAATC,0.0366
11,CTCTAGGA,-0.194
12,CTTCACCA,-0.141
13,ACACTCAG,0.0333
14,AGGAAATA,0.233
15,CCGTACGA,0.104
16,CCGGCCGC,-0.237
17,CCCACGTA,-0.0899
18,AGTCATGC,-0.0259
19,CAGGACAA,0.0953
20,GAAAATCA,0.198
21,AGTACTGC,-0.173
22,ATGTGCTG,0.111
23,GTCTGTGA,0.0571
24,CCAATCAC,-0.147
25,TCTAACAA,0.0676

row,Sequence,PBM E-score
1,TCCCGGCA,-0.268
2,CAAGAAAG,0.0874
3,CTTGTATA,-0.019
4,CCACCCCC,-0.361
5,AGGAACCA,-0.199
6,AATTCTAT,0.0911
7,CCTTTGCG,0.17
8,ACTGAATC,-0.0232
9,GAGTCGTA,-0.0876
10,GGCCCGTA,-0.0941
11,GTTGTGTA,0.0549
12,AGCCCTGA,-0.124
13,AGGAATCA,0.0273
14,CAATCACC,-0.00458
15,AAGATGAC,0.345
16,AGATTGAG,0.228
17,GGAAGTGA,0.119
18,CGCGCGCC,0.209
19,CAAAACGC,0.211
20,ACTAAATC,0.246
21,CAGTATAG,0.131
22,AAAGATGA,0.292
23,CACACGGC,0.293
24,GCAATTGA,0.234
25,TCATCCAA,0.271

row,Sequence,PBM E-score
1,AATGAACT,0.106
2,CTGTTAGC,-0.136
3,GCGGGAGA,-0.308
4,CGTGTTTA,0.136
5,CGCGGACA,-0.00614
6,CGCTTTAC,0.0111
7,AACGGGGA,-0.0597
8,GCCAAGGA,-0.0351
9,GCCTGCGA,-0.283
10,AATTAGGA,0.0183
11,AATTTTTA,0.228
12,AACACCCG,0.143
13,ACACCGCA,-0.114
14,CCCGCAAG,-0.33
15,TGAGTGCA,-0.0487
16,AAGAAGGA,-0.0423
17,GAGTCAAC,-0.0954
18,AAGGATAT,0.187
19,ATTAAGGG,-0.0594
20,GACACCGC,-0.259
21,CCGCAGAC,-0.106
22,CGTTTTTC,0.123
23,ATAAGTAC,0.0427
24,ACAGAGGC,-0.168
25,CCAAGGCG,0.0308

row,Sequence,PBM E-score
1,ACCCGTCT,-0.174
2,ACGGAGAG,-0.181
3,TCCTCACA,-0.0493
4,TACTAAAA,0.209
5,GAGAGTGA,0.0981
6,AAATGTCA,0.216
7,CGGAATAC,0.102
8,ACACTCTA,0.152
9,AGGTCTCA,-0.0465
10,ATCGTACA,0.0963
11,CATCCTAG,-0.00483
12,AGGAAGAG,-0.148
13,CTTCGACA,-0.109
14,AGAACGAT,-0.036
15,ACTAGTAG,0.072
16,ATGCGCAC,0.14
17,CACTCTTA,0.0713
18,GACACCTC,-0.105
19,GCCCGGGC,-0.165
20,GCGTGTCA,0.137
21,ACTCCAGA,-0.104
22,CTTGAAAC,0.043
23,CCAGCCCA,-0.413
24,CCTGAGGC,-0.177
25,CAAACGAC,0.0614

row,Sequence,PBM E-score
1,AAAGCGTG,0.0399
2,AGGGCGAA,-0.168
3,GATCGCCA,-0.131
4,TGTCGGAA,-0.148
5,GACCGGAA,-0.0506
6,CATCCATG,0.144
7,GGGAAACA,0.003
8,CCGAACGA,-0.0554
9,AGCCCGCG,-0.191
10,AATGTATG,0.203
11,ATTTTTTA,0.325
12,ATCTGCCG,0.071
13,CGGGGTAA,-0.0205
14,CCATCCAA,-0.0877
15,CATTCGGA,0.0454
16,ACAATTTC,0.163
17,CGTGCTAC,-0.0255
18,ACCTGGTC,-0.188
19,CAAGTAAA,0.0858
20,CGTTGTTC,0.00842
21,CTGGTAGA,-0.0329
22,CCACACGC,-0.0522
23,GACCACGC,-0.177
24,TCTCGCCA,-0.0276
25,CGTTGAAC,0.00319

row,Sequence,PBM E-score
1,GGGTGGTA,-0.108
2,AGCGATAA,0.028
3,ACAGGCCT,-0.236
4,CGTAACAC,0.171
5,CTTAGAGC,0.0236
6,AGCTTCCA,-0.103
7,ACAGAGGT,-0.0808
8,GACCAGTA,-0.231
9,CCAACTTC,-0.0772
10,ACCCCCAG,-0.43
11,GTGAATTA,0.241
12,GCTTCCGA,-0.0873
13,CTCTGTAA,0.0656
14,ATATGGTG,0.0972
15,CACCTACC,-0.123
16,CAGAAAAA,0.106
17,CGGGTTTA,0.0511
18,AGCGGGGA,-0.135
19,ACACCGCT,-0.255
20,CATTCTAG,-0.032
21,ATCTCGAG,-0.054
22,GGGCTAAA,-0.0976
23,GCTAGGAA,-0.177
24,CCTACGCG,-0.155
25,AGTGCTCG,-0.136

row,Sequence,PBM E-score
1,CCAACAGA,-0.0906
2,AGAGGCAA,-0.0175
3,GAGCAATC,-0.0982
4,GGAGGCCA,-0.314
5,ACCTTCTA,-0.0342
6,GCCCCATA,-0.143
7,ACACGTAC,-0.0236
8,CAACGGTC,-0.132
9,AGAGGCGA,-0.00133
10,AATTTAAA,0.223
11,GCTTGGAA,-0.0522
12,AGGTAATG,0.101
13,GGACCTAC,-0.243
14,CACAGAGG,-0.187
15,ACACTTCG,0.171
16,CCTGGCCG,-0.262
17,AAATTTCT,0.0445
18,CCTATGCA,-0.0716
19,CTCGTGAC,0.299
20,ACGACCAA,0.0474
21,GTCTATCA,-0.0111
22,CCGGGGAC,-0.385
